Results reported in paper PMC7509237.
Results are given in words; binding and its absence hold for the method and conditions named. Binding seen in cells or lysates may run through a third protein. Some results given as binding are weak or reduced against the parent protein; the word gives no strength. For some assays here: Where a sequence is shown, tags or fusion partners need not be part of it.

Sequences of proteins named here, by UniProt entry; tags and fusion partners are left off.
UniProt P17676: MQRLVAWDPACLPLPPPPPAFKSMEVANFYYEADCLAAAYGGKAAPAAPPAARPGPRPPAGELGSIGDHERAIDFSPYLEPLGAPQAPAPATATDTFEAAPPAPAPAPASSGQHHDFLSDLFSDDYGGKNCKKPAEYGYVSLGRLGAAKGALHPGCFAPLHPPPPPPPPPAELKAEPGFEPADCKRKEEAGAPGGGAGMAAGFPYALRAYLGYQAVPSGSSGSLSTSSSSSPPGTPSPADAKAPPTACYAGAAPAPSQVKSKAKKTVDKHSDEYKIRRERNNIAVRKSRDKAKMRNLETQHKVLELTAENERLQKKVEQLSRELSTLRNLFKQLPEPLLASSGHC
UniProt P05412: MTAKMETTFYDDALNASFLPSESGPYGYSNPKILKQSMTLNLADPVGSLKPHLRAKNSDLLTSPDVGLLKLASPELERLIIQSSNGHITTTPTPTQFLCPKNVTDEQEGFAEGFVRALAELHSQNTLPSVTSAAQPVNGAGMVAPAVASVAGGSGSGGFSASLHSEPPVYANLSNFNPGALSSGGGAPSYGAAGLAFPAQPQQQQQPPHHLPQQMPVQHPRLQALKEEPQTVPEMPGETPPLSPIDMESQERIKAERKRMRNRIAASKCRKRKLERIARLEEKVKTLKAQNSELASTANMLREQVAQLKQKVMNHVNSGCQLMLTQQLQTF
UniProt P49715: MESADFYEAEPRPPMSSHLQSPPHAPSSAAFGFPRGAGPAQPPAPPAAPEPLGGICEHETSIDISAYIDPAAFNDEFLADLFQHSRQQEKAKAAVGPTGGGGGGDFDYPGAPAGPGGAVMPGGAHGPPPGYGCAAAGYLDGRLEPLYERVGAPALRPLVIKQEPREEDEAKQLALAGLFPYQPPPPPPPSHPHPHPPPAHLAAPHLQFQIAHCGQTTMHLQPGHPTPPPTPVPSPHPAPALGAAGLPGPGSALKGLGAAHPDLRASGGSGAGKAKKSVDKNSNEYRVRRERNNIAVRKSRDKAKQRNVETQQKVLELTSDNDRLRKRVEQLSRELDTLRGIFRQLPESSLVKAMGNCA
UniProt P37231: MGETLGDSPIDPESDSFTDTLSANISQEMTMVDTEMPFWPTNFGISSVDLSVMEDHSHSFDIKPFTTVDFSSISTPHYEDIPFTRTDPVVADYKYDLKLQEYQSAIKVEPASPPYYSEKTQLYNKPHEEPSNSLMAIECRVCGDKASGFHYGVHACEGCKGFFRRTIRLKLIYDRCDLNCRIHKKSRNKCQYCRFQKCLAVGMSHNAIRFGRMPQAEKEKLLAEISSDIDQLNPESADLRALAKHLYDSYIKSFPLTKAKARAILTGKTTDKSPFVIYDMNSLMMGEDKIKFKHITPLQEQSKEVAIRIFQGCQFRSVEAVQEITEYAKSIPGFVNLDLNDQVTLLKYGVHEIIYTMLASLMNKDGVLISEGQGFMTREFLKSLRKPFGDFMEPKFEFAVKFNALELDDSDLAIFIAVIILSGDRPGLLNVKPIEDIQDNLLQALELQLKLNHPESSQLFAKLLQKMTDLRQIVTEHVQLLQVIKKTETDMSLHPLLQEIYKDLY
UniProt Q13227: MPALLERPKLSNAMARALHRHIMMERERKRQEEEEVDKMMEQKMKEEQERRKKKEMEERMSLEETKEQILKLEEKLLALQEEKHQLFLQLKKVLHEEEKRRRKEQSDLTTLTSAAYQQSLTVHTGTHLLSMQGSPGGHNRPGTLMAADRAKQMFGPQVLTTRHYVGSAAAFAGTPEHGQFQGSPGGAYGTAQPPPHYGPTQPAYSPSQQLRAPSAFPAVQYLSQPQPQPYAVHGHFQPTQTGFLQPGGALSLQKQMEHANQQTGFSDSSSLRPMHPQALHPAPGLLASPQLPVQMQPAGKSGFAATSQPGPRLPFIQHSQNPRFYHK

Experiments:
Assay in all cases: co-IP; HEK293 cells co-transfected with HA-GPS2 and a Flag-tagged partner; lysed 48 h after transfection; lysate with anti-Flag on protein A magnetic beads, 3 h at 4 °C; five washes with lysis buffer; blotted with anti-Flag or anti-HA
[1] = target: Flag-tagged C/EBPβ (UniProt P17676)
[2] = target: T1, Flag-tagged PPARα (UniProt Q07869)
T1 sequence: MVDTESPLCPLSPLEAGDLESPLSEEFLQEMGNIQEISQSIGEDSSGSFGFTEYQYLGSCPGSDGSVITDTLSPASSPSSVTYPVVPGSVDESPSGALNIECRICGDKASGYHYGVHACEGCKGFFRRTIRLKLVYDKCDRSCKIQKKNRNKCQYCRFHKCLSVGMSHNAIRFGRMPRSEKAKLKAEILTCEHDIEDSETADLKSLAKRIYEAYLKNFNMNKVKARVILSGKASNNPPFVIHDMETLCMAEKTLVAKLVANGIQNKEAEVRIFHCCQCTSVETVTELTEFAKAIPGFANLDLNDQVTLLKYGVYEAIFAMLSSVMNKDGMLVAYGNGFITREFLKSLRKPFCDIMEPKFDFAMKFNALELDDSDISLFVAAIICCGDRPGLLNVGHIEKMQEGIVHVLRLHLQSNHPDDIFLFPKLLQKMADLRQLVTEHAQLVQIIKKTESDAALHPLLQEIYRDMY

[3] = target: 3XFlag-V5-tagged c-JUN (UniProt P05412)
[4] = target: Flag-tagged C/EBPα (UniProt P49715)
[5] = target: Flag-tagged PPARγ (UniProt P37231)

Substance: HA-GPS2 (human G protein pathway suppressor 2 WT, amino acid 1-327) (from UniProt Q13227 1-327)
- binding [1]: no binding
- binding [2]: binds
- binding [3]: binds
- binding [4]: no binding
- binding [5]: binds
